This is an account of results in a collection of fitness landscapes (doi:10.1038/s41467-024-54723-y).

The full ranking holds about 18,000 sequences; the median of “TetR repression strength (sort-seq, GFP reporter)” is about 0.23, and the highest 2% start at about 0.68. The list shows a part of the results.

This test addresses TetR (class B, Tn10) (UniProt P04483). Kind of test: TetR repression strength (sort-seq, GFP reporter) (relative to tetO2 = 1); higher = stronger repression. The note with it: E. coli. The method in brief: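 E. coli SIG10-MAX carried a low-copy plasmid library with eight randomized operator positions between a constitutive promoter and sfGFP, with TetR constitutively expressed. Cells grew 5 h at 37 °C in LB with 50 µg/mL chloramphenicol, then 10^6 cells were FACS-sorted into 13 fluorescence bins, each Illumina-sequenced. Repression strength is the top bin index plus one minus the read-weighted mean bin, divided by the wild-type operator value. Three independent transformations; variants with ≥30 reads in all replicates and CV ≤0.5 were averaged.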
Chain of UniProt P04483 (P04483 whole entry): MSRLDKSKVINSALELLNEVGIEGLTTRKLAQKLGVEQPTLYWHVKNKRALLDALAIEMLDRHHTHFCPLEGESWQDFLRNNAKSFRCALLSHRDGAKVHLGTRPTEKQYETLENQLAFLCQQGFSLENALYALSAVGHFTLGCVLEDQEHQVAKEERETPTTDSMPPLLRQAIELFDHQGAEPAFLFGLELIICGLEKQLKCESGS
Sequence TCCCTGCTAGTGTAAGAGA yielded a TetR repression strength of 0.104. Regarding TCCCTCTTAGTCACAGAGA, the TetR repression strength is 0.546.

In turn, TCCCGATCAGTGCTCGAGA came in with a TetR repression strength of 0.497. With TCCCCTGTAGTGGGCGAGA, the TetR repression strength came to 0.245.

As to TCCCCGTAAGTGCGGGAGA, the TetR repression strength turned out to be 0.0648. Next, TCCCAAGTAGTCCACGAGA: 0.139; TCCCCGTGAGTGTAGGAGA: 0.204; TCCCGGTTAGTGGGCGAGA: 0.35.

TCCCTCGTAGTTCGTGAGA yielded a TetR repression strength of 0.105. Next, TCCCCACGAGTCGCTGAGA: 0.348; TCCCGCCCAGTAGGGGAGA: 0.163. As for TCCCATGGAGTTCGGGAGA, the figure is 0.228; as for TCCCCAGCAGTGATTGAGA, 1.1; as for TCCCGGGTAGTAGACGAGA, 0.22.

In the case of TCCCAAATAGTAAGGGAGA, the TetR repression strength came out at 0.319. As for TCCCCGTGAGTAAAGGAGA, the figure is 0.402; as for TCCCGGCAAGTGCGTGAGA, 0.181; as for TCCCCTAGAGTAGTCGAGA, 0.182. As for TCCCTGTCAGTGAGAGAGA, the figure is 0.444. TCCCGTTAAGTACACGAGA returned a TetR repression strength of 0.136. TCCCGATGAGTGGGCGAGA returned a TetR repression strength of 0.113. As for TCCCAGCTAGTGATTGAGA, the figure is 0.306; as for TCCCTTTAAGTGCGCGAGA, 0.764; as for TCCCGCCCAGTTGCTGAGA, 0.213.

Regarding TCCCTTTAAGTAATAGAGA, the TetR repression strength amounted to 0.44.

As for TCCCGTTGAGTCTTAGAGA, the TetR repression strength stood at 0.31. Next, TCCCCCACAGTCAACGAGA: 0.284; TCCCATCGAGTACCTGAGA: 0.255. Sequence TCCCCGTGAGTAGTCGAGA came in with a TetR repression strength of 0.229.

TCCCACACAGTAGGTGAGA: the TetR repression strength stood at 0.028.

Sequence TCCCCGCGAGTATGAGAGA came in with a TetR repression strength of 0.125.

Sequence TCCCGGCCAGTGGGTGAGA had a TetR repression strength of 0.267. As for TCCCAATCAGTGAGGGAGA, the figure is 0.352; as for TCCCTTAGAGTGTGCGAGA, 0.207. As for TCCCTCTCAGTGCCGGAGA, the figure is 0.612; as for TCCCTTGGAGTTCCGGAGA, 0.481. As for TCCCCAAAAGTAATTGAGA, the figure is 0.337. Take TCCCCCTGAGTCGTTGAGA: the TetR repression strength amounted to 0.22.

For the sequence TCCCCGTGAGTACGTGAGA, the TetR repression strength turned out to be 0.226. In the case of TCCCGCAAAGTTAGAGAGA, the TetR repression strength was 0.367. As for TCCCGGAAAGTCTTTGAGA, the figure is 0.373; as for TCCCTCACAGTTGCTGAGA, 0.215. As for TCCCTAATAGTTGAGGAGA, the figure is 0.442. Next, TCCCTGTGAGTTGGAGAGA: 0.142; TCCCACAAAGTGACAGAGA: 0.273; TCCCTATTAGTGACAGAGA: 0.625. In turn, TCCCTGTAAGTTGAGGAGA gave a TetR repression strength of 0.267. As for TCCCCGTAAGTACCCGAGA, the figure is 0.351. Next, TCCCAGGCAGTTGATGAGA: 0.281; TCCCAAACAGTCGGGGAGA: 0.274; TCCCAATCAGTAGGTGAGA: 0.25. Next, TCCCTTCGAGTCTTAGAGA: 0.531.

For the sequence TCCCGGTAAGTGGTAGAGA, the TetR repression strength amounted to 0.194. TCCCACTGAGTCATCGAGA showed a TetR repression strength of 0.357. Next, TCCCCGGGAGTGGTAGAGA: 0.257; TCCCGCCCAGTGTACGAGA: 0.337. For the sequence TCCCGCGAAGTGGGAGAGA, the TetR repression strength turned out to be 0.0441. Next, TCCCTGTAAGTTGATGAGA: 0.236; TCCCGTGTAGTAGACGAGA: 0.175. Sequence TCCCGGAGAGTGTATGAGA had a TetR repression strength of 0.188. Next, TCCCACTAAGTTTTGGAGA: 0; TCCCGAACAGTGCTGGAGA: 0.328.

As to TCCCTTATAGTGGGCGAGA, the TetR repression strength is 0.178. Next, TCCCGGTCAGTGATAGAGA: 0.665.

Turning to TCCCCGAGAGTTCTGGAGA, the TetR repression strength stood at 0.475. Next, TCCCGCCCAGTGGTGGAGA: 0.0548; TCCCTTCCAGTCTCTGAGA: 0.325; TCCCTGTTAGTTTCGGAGA: 0.178. On to TCCCTCTCAGTGGGCGAGA, for which the TetR repression strength is 0.474. As for TCCCTAACAGTCGATGAGA, the figure is 0.444; as for TCCCGGGCAGTAATAGAGA, 0.192. As for TCCCTAGAAGTGGGAGAGA, the figure is 0.231; as for TCCCGAGCAGTCTGAGAGA, 0.149; as for TCCCTCTAAGTGGGGGAGA, 0.254. As for TCCCTGGCAGTAGGTGAGA, the figure is 0.102. With TCCCGGTCAGTTGAGGAGA, the TetR repression strength is 0.219. As for TCCCTACTAGTGGGTGAGA, the figure is 0.165. TCCCAGACAGTGTCGGAGA: the TetR repression strength amounted to 0.377. As for TCCCCGGGAGTCCCGGAGA, the figure is 0.104; as for TCCCTTAAAGTCGGAGAGA, 0.0415. As for TCCCGGGCAGTCCCAGAGA, the figure is 0.218; as for TCCCCGAAAGTGAATGAGA, 0.146; as for TCCCTGGCAGTCCTCGAGA, 0.325. Consider TCCCGCCGAGTTAGAGAGA, for which the TetR repression strength was 0.395.

TCCCGATGAGTCAGGGAGA had a TetR repression strength of 0.174.

TCCCGACTAGTACATGAGA returned a TetR repression strength of 0.625. Next, TCCCACGCAGTTGCGGAGA: 0.133; TCCCAGCAAGTATCTGAGA: 0.0805. As for TCCCAATAAGTATAGGAGA, the TetR repression strength was found to be 0.396. Next, TCCCCGGTAGTGGATGAGA: 0.184.

In turn, TCCCTGTCAGTTGTTGAGA came in with a TetR repression strength of 0.249. As for TCCCCGTAAGTGTTTGAGA, the figure is 0.207; as for TCCCCTTTAGTCCCTGAGA, 0.355; as for TCCCCTGGAGTAGCGGAGA, 0.15. For the sequence TCCCGTGTAGTGATTGAGA, the TetR repression strength was found to be 0.246.

Sequence TCCCTGAAAGTAGGGGAGA returned a TetR repression strength of 0.17.

Sequence TCCCGTGCAGTGTCAGAGA yielded a TetR repression strength of 0.168. As for TCCCCGGCAGTAGGAGAGA, the figure is 0.252. Next, TCCCTCAAAGTATAGGAGA: 0.293. As for TCCCGTTTAGTGGCCGAGA, the figure is 0.0159; as for TCCCTGGTAGTCGCAGAGA, 0.0716; as for TCCCCAGAAGTGGCGGAGA, 0.199.
